Test results: US20110028422A1 (priority 2007, published 2011)

Tested on: Rad51-related DNA repair

`Cc1cn(-c2cc(NC(=O)c3ccc(C)c(Nc4nccc(-c5cccnc5)n4)c3)cc(C(F)(F)F)c2)cn1` [Nilotinib, 4-methyl-3-[[4-(3-pyridinyl)-2-pyrimidinyl]amino]-N-[5-(4-methyl-1H-imidazol-1-yl)-3-(trifluoromethyl)phenyl]benzamide] was tested, and the “CLB-induced Rad51-related DNA repair” value was “inhibit”.
